# Some of the results follow.
# Test system: HSkMC (human skeletal muscle cells)
# Assay: cytotoxicity call (relative viability < 0.9)
# Settings: 10 µM
row,Compound,cytotoxicity call
1,C[C@H]1CCCCO[C@H](CN(C)Cc2ccccc2)[C@@H](C)CN([C@@H](C)CO)C(=O)c2cc(NS(=O)(=O)c3ccc(Cl)cc3)ccc2O1,inactive
2,CN(C)C(=O)c1ccc(-c2cccc(-c3nc(C(=O)NC4CCC4)cc4c3[C@@H](CCO)N([S@](=O)C(C)(C)C)C4)c2)cc1,inactive
3,CCOC(=O)CC(=O)c1ccn(C)n1,inactive
4,C[C@@H]1CN([C@@H](C)CO)C(=O)Cc2cc(NC(=O)Nc3ccc(C(F)(F)F)cc3)ccc2O[C@H]1CN(C)Cc1ccc(Oc2ccccc2)cc1,active
5,Cc1cc(Cn2c(=O)n(Cc3cnc(C)s3)c(=O)c3cc(S(=O)(=O)NC4(C)CC4)ccc32)n(C)n1,inactive
6,COc1cccc(S(=O)(=O)N2C[C@@H](O)COC[C@H]3O[C@@H](CC(=O)N4CCN(c5ccccc5)CC4)CC[C@@H]32)c1,inactive
7,Cc1ccc(S(=O)(=O)Nc2ccc3c(c2)C(=O)N([C@H](C)CO)C[C@@H](C)[C@@H](CN(C)Cc2ccc(Cl)c(Cl)c2)OCCCC[C@H](C)O3)cc1,inactive
8,CCCN(C)C[C@@H]1OCCCC[C@H](C)Oc2ccc(NC(=O)Nc3ccc(F)cc3)cc2C(=O)N([C@H](C)CO)C[C@@H]1C,inactive
9,C[C@@H]1CN([C@H](C)CO)C(=O)Cc2cc(NC(=O)Nc3ccc(C(F)(F)F)cc3)ccc2O[C@H]1CN(C)C(=O)Nc1ccc(F)cc1,inactive
10,COc1ccc(S(=O)(=O)N(C)C[C@H]2OCCCC[C@@H](C)Oc3ccc(NC(=O)C4CCCCC4)cc3C(=O)N([C@H](C)CO)C[C@H]2C)cc1,inactive
11,O=C(C[C@@H]1C[C@@H]2c3cc(NS(=O)(=O)c4ccc(F)cc4)ccc3O[C@@H]2[C@H](CO)O1)NCC(F)(F)F,inactive
12,COc1ccc2c3c(n(c2c1)C)[C@H](CO)N(C[C@]13CN(CC2CCOCC2)C1)C(=O)Cc1ccccn1,inactive
13,NCC[C@H]1CC[C@@H](NC(=O)C2CCCC2)[C@@H](CO)O1,inactive
14,C[C@@H]1CN([C@H](C)CO)C(=O)c2cc(NC(=O)Nc3ccccc3)ccc2O[C@@H](C)CCCCO[C@H]1CN(C)Cc1ccc2c(c1)OCO2,inactive
15,C[C@@H]1CCCCO[C@@H](CN(C)Cc2ccc3c(c2)OCO3)[C@@H](C)CN([C@H](C)CO)C(=O)c2cc(NC(=O)Nc3ccccc3)ccc2O1,inactive
16,O=C(C[C@H]1C[C@H]2c3cc(NC(=O)Nc4ccc(C(F)(F)F)cc4)ccc3O[C@H]2[C@H](CO)O1)NCCc1ccccc1,inactive
17,C[C@@H]1CCCCO[C@@H](CN(C)S(=O)(=O)c2ccccc2)[C@H](C)CN([C@H](C)CO)C(=O)c2cc(NC(=O)c3ccccc3)ccc2O1,inactive
18,C[C@H]1CN([C@@H](C)CO)C(=O)Cc2cc(NC(=O)Nc3ccc(C(F)(F)F)cc3)ccc2O[C@@H]1CN(C)C(=O)NC1CCCCC1,inactive
19,C[C@H](CO)N1C[C@H](C)[C@H](CN(C)C(=O)C2CCCCC2)OCCCC[C@H](C)Oc2ccc(NC(=O)c3ccccc3)cc2C1=O,inactive
20,CC/C(=C\C(=N\O)C(N)=O)[C@@H](C)[N+](=O)[O-],inactive

row,Compound,cytotoxicity call
1,CN1C(=O)c2cc(NC(=O)C3CCCC3)ccc2OC[C@H]2O[C@H](CC(=O)NCCc3ccncc3)CC[C@@H]21,inactive
2,O=C(C=Cc1ccc(O)cc1)c1ccccc1O,inactive
3,Cc1nc(CO)co1,inactive
4,C[C@@H]1CN([C@H](C)CO)C(=O)c2cccc(NS(=O)(=O)c3ccc(F)cc3)c2O[C@H]1CN(C)S(=O)(=O)c1cn(C)cn1,inactive
5,C[C@@H]1CN([C@@H](C)CO)C(=O)c2cc(/C=C/c3ccccc3)cnc2O[C@H]1CN(C)C(=O)CN1CCOCC1,inactive
6,COc1ccc(S(=O)(=O)N(C)C[C@H]2Oc3c(cccc3N(C)C)C(=O)N([C@@H](C)CO)C[C@H]2C)cc1,inactive
7,C[C@@H]1CCCCO[C@@H](CN(C)C(=O)CCC(F)(F)F)[C@H](C)CN([C@@H](C)CO)C(=O)c2cc(NC(=O)Nc3ccccc3)ccc2O1,inactive
8,C[C@@H]1CN([C@@H](C)CO)C(=O)c2cc(NC(=O)Nc3ccc4c(c3)OCO4)ccc2O[C@@H](C)CCCCO[C@H]1CN(C)Cc1ccc(C(F)(F)F)cc1,inactive
9,CNCc1ccncc1,inactive
10,C[C@@H]1CN([C@@H](C)CO)C(=O)c2cc(NC(=O)Cc3ccccc3)ccc2O[C@@H]1CN(C)C(=O)Nc1cccc2ccccc12,inactive
11,C[C@@H]1CN([C@H](C)CO)C(=O)c2cc(NC(=O)Cn3cnnn3)ccc2O[C@H]1CN(C)S(=O)(=O)c1ccc(F)cc1,inactive
12,CO[C@H](CN(C)C(=O)Nc1ccc(C(F)(F)F)cc1)[C@@H](C)CN(Cc1ccccc1Cl)[C@@H](C)CO,inactive
13,COc1ccc(NC(=O)Nc2ccc3c(c2)C(=O)N([C@H](C)CO)C[C@H](C)[C@@H](CN(C)Cc2ccc(Cl)c(Cl)c2)OCCCC[C@@H](C)O3)cc1,inactive
14,OC[C@H]1O[C@@H](n2cnc3c(NC4CCCC4)ncnc32)[C@H](O)[C@@H]1O,inactive
15,C[C@H](CO)N1C[C@H](C)[C@@H](CN(C)Cc2ccc(Oc3ccccc3)cc2)Oc2ccc(NS(=O)(=O)c3ccc(Cl)cc3)cc2C1=O,inactive
16,CN(C)CCN(Cc1ccc(Cl)cc1)c1ccccn1.Cl,inactive
17,C[C@@H]1CCCCO[C@@H](CN(C)C(=O)Nc2ccccc2)[C@@H](C)CN([C@H](C)CO)C(=O)c2cc(NC(=O)Nc3cccc4ccccc34)ccc2O1,inactive
18,C#CCN1C(=O)N(C(=O)c2ccccc2)[C@@]2(COCc3ccc(OC)cc3)Oc3ccccc3[C@@H]1[C@H]2CO[Si](C)(C)C(C)(C)C,inactive
19,CC(=O)N[C@H]1[C@H](O[C@@H]2[C@@H](O)[C@H](C)O[C@@H](Oc3ccc4c(=O)c(-c5ccc(O)cc5)coc4c3)[C@@H]2O)O[C@H](CO)[C@@H](O[C@@H]2O[C@@H](C)[C@H](O)[C@@H](O)[C@H]2O)[C@@H]1O,inactive
20,O=C(C1=C[C@@H](c2ccc(Br)cc2)C[C@@H](OCc2ccc(CO)cc2)O1)N1CCN(Cc2ccccc2)CC1,inactive
